From publication PMC4336329 (PLoS ONE, 2015)
About 14,000 (4.5%) of roughly 310,000 compounds showed an effect of 50% or more. Effects have a minus sign here. The list shows a part of the results.

Target: human ether-à-go-go-related gene (hERG) potassium channel (human, UniProt Q12809)
Experiment: primary screen, population patch clamp on CHO cells stably expressing hERG
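Also: peak tail current of the secondary pulse compared with the same well before compound.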

Sequence of human ether-à-go-go-related gene (hERG) potassium channel (Q12809 whole entry, looked up): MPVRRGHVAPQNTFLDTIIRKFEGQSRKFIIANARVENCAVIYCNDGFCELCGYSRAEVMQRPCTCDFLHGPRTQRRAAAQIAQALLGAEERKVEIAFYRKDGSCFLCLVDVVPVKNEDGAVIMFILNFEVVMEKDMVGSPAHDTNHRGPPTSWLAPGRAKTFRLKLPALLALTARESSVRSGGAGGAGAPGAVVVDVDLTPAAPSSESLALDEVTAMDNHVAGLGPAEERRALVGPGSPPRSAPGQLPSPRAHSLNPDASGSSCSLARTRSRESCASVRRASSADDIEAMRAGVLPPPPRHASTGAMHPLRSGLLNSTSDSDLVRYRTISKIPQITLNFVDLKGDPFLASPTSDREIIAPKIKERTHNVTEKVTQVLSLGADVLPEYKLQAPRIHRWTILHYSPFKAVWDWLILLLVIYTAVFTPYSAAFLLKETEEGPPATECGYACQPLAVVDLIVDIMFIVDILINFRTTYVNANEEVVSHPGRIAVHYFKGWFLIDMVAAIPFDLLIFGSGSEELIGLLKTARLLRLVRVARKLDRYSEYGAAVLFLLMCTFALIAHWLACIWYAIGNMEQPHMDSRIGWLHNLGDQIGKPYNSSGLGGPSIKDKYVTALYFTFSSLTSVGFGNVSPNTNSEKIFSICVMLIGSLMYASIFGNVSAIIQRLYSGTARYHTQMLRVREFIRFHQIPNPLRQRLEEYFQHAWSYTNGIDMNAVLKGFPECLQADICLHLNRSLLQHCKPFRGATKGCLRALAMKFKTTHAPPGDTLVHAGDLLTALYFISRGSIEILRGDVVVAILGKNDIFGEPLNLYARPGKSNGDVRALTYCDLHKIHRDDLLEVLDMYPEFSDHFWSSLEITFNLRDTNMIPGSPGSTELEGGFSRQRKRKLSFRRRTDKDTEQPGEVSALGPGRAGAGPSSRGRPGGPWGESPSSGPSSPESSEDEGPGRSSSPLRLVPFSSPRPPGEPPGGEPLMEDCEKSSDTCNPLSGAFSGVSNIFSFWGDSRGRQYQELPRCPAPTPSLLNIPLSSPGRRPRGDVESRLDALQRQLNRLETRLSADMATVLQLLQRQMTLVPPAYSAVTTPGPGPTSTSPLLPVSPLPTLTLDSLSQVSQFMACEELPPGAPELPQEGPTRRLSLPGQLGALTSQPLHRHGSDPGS

Row | Structure (SMILES) | hERG current change (%, negative = inhibition) at 10uM
1 | COc1ccc(/C=C/C(=O)O)cc1S(=O)(=O)Nc1ccc2c(c1)OCO2 | 3.41%
2 | CN(C)c1ccc(NC(=S)NC(=O)/C=C/c2ccc(Cl)cc2)cc1 | 2.39%
3 | COc1ccc2c(c1)c(=O)oc1c(C)c(OC(C)C(=O)N[C@@H](Cc3c[nH]c4ccc(O)cc34)C(=O)O)ccc12 (some centres unmarked) | 24.1%
4 | CN(C)c1ccc(/C=C/c2nc3ccccc3c(=O)[nH]2)cc1 | 18.5%
5 | NC(=O)CC(NC(=O)Cc1ccc(Cl)cc1)c1ccc(NC2CCCCC2)c([N+](=O)[O-])c1 (centres unmarked) | 6.6%
6 | Cc1cc(O)c(C2=Nc3ccccc3SC(c3ccc(Cl)cc3)C2)c(=O)o1 (centres unmarked) | 19.4%
7 | CNc1nc2c(c(=O)[nH]c(=O)n2C)n1CCCc1ccccc1 | 19.8%
8 | COc1ccc(-c2c(C)nn3c(NC4CCCC4)cc(C)nc23)cc1OC | -17.2%
9 | CC(C)(Cc1ccccc1)/[N+]([O-])=C\c1ccc(C(F)(F)F)cc1 | -22%
10 | O=C(NCCCN1CCOCC1)c1nn(-c2ccccc2)c(=O)c2ccccc12 | -26.2%
11 | COC(=O)c1cc(Br)c(=O)n(Cc2ccco2)c1 | 3.43%
12 | Cc1ccc(OC(=O)CCNC(=O)c2ccccc2Cl)c(Br)c1 | -16.3%
13 | Cc1ccc(C(=O)NCC(=O)OCC(=O)Nc2ccc(Cl)cc2C(F)(F)F)cc1C | -4.47%
14 | Cc1c(F)cccc1NC(=O)CCCCCC1NC(=O)NC1C (centres unmarked) | 14.9%
15 | Cn1c(=O)n(C)c2cc(S(=O)(=O)N3CCCCC3)ccc21 | 10.4%
16 | CCc1ccc(N(C(=O)CNC(=O)c2ccco2)C(C(=O)NC2CCCC2)c2ccncc2)cc1 (centres unmarked) | -9.98%
17 | Cc1ccccc1NC(=O)c1cccnc1 | -7.59%
18 | CCCNS(=O)(=O)c1ccc(CCC(=O)NCc2cccnc2)cc1 | 15.3%
19 | CC(=O)C(Cc1ccccc1)NC(=O)CN1CCc2ccccc2C1 (centres unmarked) | -7.4%

Row | Structure (SMILES) | hERG current change (%, negative = inhibition) at 10uM
20 | COc1cccc(C2Oc3ccccc3C3CC(c4cccs4)=NN32)c1 (centres unmarked) | 5.24%
21 | Cc1oc(C(C)(C)C)cc1C(=O)NCC(=O)NCC(=O)O | -2.41%
22 | Cc1ccc(-c2nnc(-c3ccc(Br)cc3)o2)o1 | 3.4%
23 | Cc1cccc(NCC(O)Cn2cnc3c2c(=O)n(C)c(=O)n3C)c1 (centres unmarked) | -1.49%
24 | COc1ccnc(Oc2ccc(C)cc2)c1C#N | 12.1%
25 | CCOc1ccc(S(=O)(=O)N(CC)CC(=O)NCc2cccnc2)cc1C | -23.9%
26 | CCOc1cccc(-c2c(C(=O)N/N=C/c3cccs3)nnn2-c2nonc2N)c1 | 6.5%
27 | CCN1CCN(C(c2cc(OC)c(OC)c(OC)c2)c2nnnn2C(C)C)CC1.Cl (centres unmarked) | -10.6%
28 | COc1cccc(C=Nc2ccccc2C(=O)Nc2ccccc2)c1O | 26.7%
29 | CNC(=O)CSc1nnc(-c2cccnc2)n1-c1ccc(C)cc1 | 13.6%
30 | COc1nc(NCCc2ccc(OC)c(OC)c2)nc(OC)n1 | -18.3%
31 | COc1ccccc1N1CCN(S(=O)(=O)c2ccc3c(c2)NC(=O)CS3)CC1 | 2.82%
32 | CCN(CC)c1ccc(/C=N/NC(=O)CC(C)C)cc1 | -13.7%
33 | CC(NCCC1(C(C)C)CCOC(C)(C)C1)c1cccs1 (centres unmarked) | 15.9%
34 | Cc1ccc(C(=O)N2CCN(c3cccc(Cl)c3)CC2)cc1C | -13.4%
35 | c1ccc(Nc2ccc(Nc3ccccc3)cc2)cc1 | 17.9%
36 | CC(=O)c1cccc(NC(=O)CN(c2ccccc2F)S(C)(=O)=O)c1 | -0.927%
37 | CC(C)C1(C(C)C)OC(=O)c2ccccc21 | -20.6%
38 | Nn1c(SCC(=O)NC2CCCCC2)nnc1-c1ccco1 | 4.3%

Row | Structure (SMILES) | hERG current change (%, negative = inhibition) at 10uM
39 | COc1ccc2oc(C(=O)N3CCN(c4ncccn4)CC3)c(C)c2c1 | -34.7%
40 | COc1ccc(CNC(=O)C(c2ccco2)N(C(=O)c2csnn2)c2cccc(C)c2C)cc1 (centres unmarked) | -5.13%
41 | O=C(Oc1ccccc1Cl)c1ccccc1P(=O)(O)O | 13.9%
42 | Cc1ccc(CNc2ccc3c(c2)ncn3C)cc1 | -33.8%
43 | O=C(CCCn1c(=O)[nH]c2ccccc2c1=O)Nc1ccc(F)cc1 | -2.74%
44 | O=C(CSc1nc2ccccc2[nH]1)Nc1nc(-c2ccc(Br)cc2)cs1 | 29.2%
45 | CCOc1ccc(-n2c(=S)sc3c(=O)n(-c4ccc(F)cc4)c(SCC(=O)O)nc32)cc1 | -23.7%
46 | COc1ccc(C(=O)Nc2ncc(C)s2)cc1S(=O)(=O)N1CCCC1 | 17.5%
47 | CC[n+]1oc(-c2ccccc2)cc1C.F[B-](F)(F)F | 6.78%
48 | O=C(c1ccccc1)c1ccc2c(c1)OCCOCCOCCOCCO2 | -65%
49 | COc1ccccc1N1CCN(S(=O)(=O)CCNC(=O)CCCc2ccccc2)CC1 | -17%
50 | COc1ccc(NC(=O)c2cc(-c3ccccn3)nc3ccccc23)cc1S(=O)(=O)N(C)C | -16.6%
51 | Cn1cccc1C(NC(=O)c1ccccc1)C(Cl)(Cl)Cl (centres unmarked) | 13.1%
52 | O=C(NC1CCCC1)C(=O)N(Cc1cccnc1)C(C(=O)NCC1CCCO1)c1ccco1 (centres unmarked) | 38.2%
53 | COc1ccc(N2CCN(C(=O)Cn3cncn3)CC2)cc1 | 2.02%
54 | CC(=O)Nc1ccc(NC(=O)Cn2c(=O)n(-c3ccc(C)cc3)c(=O)c3oc4ccccc4c32)cc1 | 6.04%
55 | O=C(Oc1ccc2cc(Br)ccc2c1)c1cccnc1 | 14.4%
56 | COc1ccc(C)cc1NC(=O)CCS(=O)(=O)c1cc2c(cc1Cl)NC(=O)CO2 | -14.4%
